Test results taken from publication PMC12136788.
The other results are listed elsewhere or left out.

B1: chr19:4361374:4361475:-|3pUTR|ENSG00000141985|msi1|total|mutant (ssRNA)
RNA: GGGAGUUCUACAGUCCGACGAUCCAGGACCCCACACUUGGGUGGGGGGGCUUAUCUGGGUGGGUGGGGAUGCCUGUUUACACCCGCGCUGACUCCCAACGGUGACGGCUCCCUUCCCCACUCCAUGGCGCCAGCCUCCUCCCCCAACAGAGGAUUGAGCAUCA
B2: chr1:206732925:206733026:+|3pUTR|ENSG00000162889|msi1|total|mutant (ssRNA)
RNA: GGGAGUUCUACAGUCCGACGAUCAAGUGAGCAAGGUGCUCUUGAACCUGUGCUCAUUUUGCAAUUUUAUCAGUAAUUUGACUCCGAGUUUUUACGAAACCUCUUUUGUUGUCCUUGCCCCACUCCUCUCCACCAGACGCCUUCCAACAGAGGAUUGAGCAUCA
B3: chr1:35420597:35420698:+|3pUTR|ENSG00000146463|msi1|FALSE|bound_elsewhere (ssRNA)
RNA: GGGAGUUCUACAGUCCGACGAUCGUUCCUCUUAUUUUGUCUUUUGCACCAGUUUCUGGAGGCCCUUGUCAUUUCAAAAAGGAUAGUCUCUUUUCUUACUCUGGCAAACCUGUGAGUGAUUCCACAAAGAUACAGUAUUACUUACAACAGAGGAUUGAGCAUCA
B4: chr1:51271806:51271833:+|3pUTR|ENSG00000123091|msi1_unk|FALSE|overlapping (ssRNA)
RNA: GGGAGUUCUACAGUCCGACGAUCCAUUUGGGUCAAGGUUUUAUUAAAAGCUACAUUUUAUAACACUGGCACACACAAAAAAGUAGUUUUAAGCUUGUUUGCACAGUUCUUUUUUUCCAUUGGAAAUGGAAUUCAUUGCCUUAGCAACAGAGGAUUGAGCAUCA
B5: chr3:41225420:41225524:+|CDS|ENSG00000168036|unk|FALSE|unique (ssRNA)
RNA: GGGAGUUCUACAGUCCGACGAUCCAUGCGUUCUCCUCAGAUGGUGUCUGCUAUUGUACGUACCAUGCAGAAUACAAAUGAUGUAGAAACAGCUCGUUGUACCGCUGGGACCUUGCAUAACCUUUCCCAUCAUCGUGAGGGCUUCAACAGAGGAUUGAGCAUCA
B6: chr11:119418913:119419014:-|3pUTR|ENSG00000154096|msi1|FALSE|unique (ssRNA)
RNA: GGGAGUUCUACAGUCCGACGAUCAUCGGGACCAGAAACCUGGGAGAGACUUGGAUGAGGAGUGGUUGGGCUGUGCCUGGGCCUAGCACGGACAUGGUCUGUCCUGACAGCACUCCUCGGCAGGCAUGGCUGGUGCCUGAAGACCAACAGAGGAUUGAGCAUCA
B7: ENSG00000198589:be:win_9351|3pUTR|ENSG00000198589|bound_else_gene|NA|bound_elsewhere_windowed (ssRNA)
RNA: GGGAGUUCUACAGUCCGACGAUCAGCCACUGUUGUUUUGUUGGGGCACCCCCUUCCCUCCCCGGGUUUGCAAAUAGAGGCUACCGGGUGCUGUAUUCAGCAACACCUGUUUUACUAUUUGUUAUUAAACUAUCAUCUCCACCUCAACAGAGGAUUGAGCAUCA
B8: chr2:159349074:159349175:-|CDS|ENSG00000123636|unk|total|mutant (ssRNA)
RNA: GGGAGUUCUACAGUCCGACGAUCUGGUGUGGUUACUUCUAAUAUUCCAUUUACAUCAUCUGUACCCCGUCCCGGAUCGGGGUCCGGGUUAUCAGAAGGAAAUGGUAAUUCAUUCUUGACUUCCAAUGUUGCUUCAAGUAAAAGCAACAGAGGAUUGAGCAUCA
B9: chr12:79451877:79451978:+|3pUTR|ENSG00000067715|msi1|total|mutant (ssRNA)
RNA: GGGAGUUCUACAGUCCGACGAUCCCUUCAUUUUUGAUGAGGUGAUUUAAAUUUUGUUUCACUUUGUGCCGUGAAUUCCACAGCCGUUUUCUGAUUGUUGUUAAAAAUGACUUAACAUAUUACACAGAUAUUCAAUAAAAAUGUCAACAGAGGAUUGAGCAUCA
B10: chr11:69651622:69651678:+|3pUTR|ENSG00000110092|msi1_unk|total|mutant (ssRNA)
RNA: GGGAGUUCUACAGUCCGACGAUCUUAUACCCCAAUAAUCAACUCGUUUUUAUAUUAAUGUACUUGUUUCUCUGUUGUAAGAACCGGCAUUAACACAAAGGAGGCGUCUCGGGAGAGGAUCCGGUUCCAUCCUUUACGUGUUUACAACAGAGGAUUGAGCAUCA
B11: chr10:96238888:96239129:-|three_prime_utr|ENSG00000095585|control|control|control (ssRNA)
RNA: GGGAGUUCUACAGUCCGACGAUCAGUGUGGCCCAACAGGAUCUUCUAAGCCUUUGCAACACAAAGUUUGAUUCCCAGCAAGAUAGCAUCAACCUCAUCUGGAGCUUGUUAGAAAUGCAGAAUCUUGGCCCCACCCUAGAACUACAACAGAGGAUUGAGCAUCA
B12: chr1:153933785:153933886:-|CDS|ENSG00000198837|msi1|total|mutant (ssRNA)
RNA: GGGAGUUCUACAGUCCGACGAUCGGGAAGUUGGUGCAGAGGCUGGGGUCCAUCUUCCCUCAUUCUUUUCUGUGCUGCAGUGACCGAGGCCUUGGGGGUCCUGGAACCCCGGGGAUCACCUGUGCCCUGGCACGAUGGAAGUCUCAACAGAGGAUUGAGCAUCA
B13: chr6:32841530:32841735:-|CDS|ENSG00000204264|control|control|control (ssRNA)
RNA: GGGAGUUCUACAGUCCGACGAUCACGGGUAGUGGGAACACUUAUGCCUACGGGGUCAUGGACAGUGGCUAUCGGCCUAAUCUUAGCCCUGAAGAGGCCUAUGACCUUGGCCGCAGGGCUAUUGCUUAUGCCACUCACAGAGACCAACAGAGGAUUGAGCAUCA
B14: chr12:39553410:39553513:-|3pUTR|ENSG00000173208|unk|FALSE|unique (ssRNA)
RNA: GGGAGUUCUACAGUCCGACGAUCUAAGAUUCAAACUUUGAGUGACAUUUAGUCCAUUUAUGGUUGAUAUUAGGUUUAAUAGCUAGAAUUCAAAUUGAUUAUUGCUAGUGGCCAACUAAACCUGUACAAAAUAGCUGACAGUUUCAACAGAGGAUUGAGCAUCA

These binders were tested against T1, UNK ZnF1-6 (called full-length) (human, UniProt Q9C0B0 30-357) (assay: nsRBNS (natural sequence RNA bind-n-seq); RBNS binding buffer (assumed for nsRBNS): 25 mM Tris pH 7.5, 150 mM KCl, 3 mM MgCl2, 0.01% Triton X-100, 500 ug/ml BSA, 20 U/ml SUPERase-In, 4 C; UNK is unkempt and MSI1 is Musashi-1; names of the RNAs are library labels; protein concentration not given here; high values mean tight binding).
T1 sequence: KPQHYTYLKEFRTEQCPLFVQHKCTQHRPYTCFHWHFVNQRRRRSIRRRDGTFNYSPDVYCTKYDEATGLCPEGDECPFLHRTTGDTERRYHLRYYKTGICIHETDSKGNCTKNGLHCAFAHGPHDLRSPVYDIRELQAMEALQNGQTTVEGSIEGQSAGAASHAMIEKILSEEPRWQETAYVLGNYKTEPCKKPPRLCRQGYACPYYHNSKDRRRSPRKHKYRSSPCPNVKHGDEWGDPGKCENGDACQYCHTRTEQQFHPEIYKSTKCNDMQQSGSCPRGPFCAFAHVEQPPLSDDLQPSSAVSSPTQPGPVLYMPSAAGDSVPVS

| Binder | binding signal |
| --- | --- |
| B1 | 0.721 enrichment R |
| B2 | 0.379 enrichment R |
| B3 | 0.782 enrichment R |
| B4 | 0.568 enrichment R |
| B5 | 0.6 enrichment R |
| B6 | 0.948 enrichment R |
| B7 | 1.28 enrichment R |
| B8 | 0.375 enrichment R |
| B9 | 0.573 enrichment R |
| B10 | 0.781 enrichment R |
| B11 | 1.11 enrichment R |
| B12 | 1.2 enrichment R |
| B13 | 0.431 enrichment R |
| B14 | 1.69 enrichment R |
